# Measurements reported in PubChem BioAssay AID1466 (National Center for Advancing Translational Sciences (NCATS), 2008).
# Among all 200,000 compounds or so, about 10 (0.005%) were called active. The inconclusive results got no clear call from the source; some entries with a clear call stand among them for comparison. The call rests on the fitted dose curve; in most records, active means well fitted inhibition curve with a large enough effect; inconclusive means small, poorly fitted or top-dose-only effect, or effect the other way, or another doubt; inactive means no such curve, though single readings can be large or run the other way. No potency is given beside an inconclusive call; the fits are too rough.
# Target: Lysosomal alpha-glucosidase (Homo sapiens) (UniProt P10253)
# Assay: qHTS Assay for Inhibitors of Human alpha-Glucosidase as a Potential Chaperone Treatment of Pompe Disease;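 on activity change, negative = inhibition: plate controls were uninhibited enzyme wells for no effect and no-enzyme background for full effect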
# Conditions: purified human GAA, 4-MU-alpha-glucoside fluorescence; activity change, negative = inhibition: at 76.9 µM (top of the series) unless noted
# Summary of the method: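 Activity normalized between no-enzyme (basal) and enzyme-only wells. Conditions: 4 nM human enzyme, 400 uM fluorogenic substrate, citrate/phosphate pH 5.0 with Tween-20, 20 min room temperature, compounds up to 77 uM.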
# Potency means the concentration at half of the fitted maximal effect; tags describe the fitted curve by direction and shape.
Compound,Potency,"activity change, negative = inhibition"
CNS(=O)(=O)c1ccc(NC(=O)c2ccc(Cl)cc2Cl)cc1,"inconclusive [inhibitor, partial curve, poor fit]",
Cn1cccc1C(=O)N1CCN(c2cccc(C(F)(F)F)c2)CC1,"inconclusive [inhibitor, partial curve]",
Cc1ccc2nc(Cc3ccc(N)cc3)[nH]c2c1,,inconclusive: 14.3% [activator]
Cc1c(Cl)cccc1NC(=O)Cn1c(-c2ccc(F)cc2)noc1=O,,inconclusive: 18.8% [activator]
C/C(=N\NC(=O)Cn1cnc2ccccc21)c1cccs1,,inconclusive: 15.4% [activator]
O=C(c1ccccc1F)N(Cc1cccnc1)Cc1cc2cc3c(cc2[nH]c1=O)OCCO3,"inconclusive [activator, single point]",
CCOC(=O)N1CCC(N2C(=O)c3ccccc3C2Nc2c(C)cccc2C)CC1 (stereo not given),"inconclusive [inhibitor, single point]",
O=c1[nH]cnc2c1nc(SCc1ccccc1)n2C1OC(CO)C(O)C1O (stereo not given),,inconclusive: -15.3% [inhibitor]
COc1cccc(C2CN(c3ccc(F)cc3F)N=C2c2cccs2)c1OC (stereo not given),"inconclusive [activator, partial curve]",
Cn1c(=O)c2c(nc(CN3CCN(c4ccc(F)cc4)CC3)n2Cc2ccccc2F)n(C)c1=O,,inconclusive: 0.309% [activator]
O=C(CN1CCCC1)Nc1c2c(nc3ccccc13)N(Cc1ccccc1)CC2,"inconclusive [activator, partial curve]",
COc1ccc(NC(=O)c2cccc(N3C(=O)NC4CC3(C)Oc3ccccc34)c2)cc1 (stereo not given),"inconclusive [inhibitor, single point]",
COC(=O)CNC(c1ccccc1Cl)c1cc(Br)ccc1NS(=O)(=O)c1ccc(C)cc1 (stereo not given),,inconclusive: -15.5% [inhibitor]
Cc1ccc(NC(=O)C2CC(=O)N(C(C)C)C2)cc1Cl (stereo not given),,inconclusive: 15.2% [activator]
COc1ccc2nc3oc(C(=O)NCc4cccs4)cc3cc2c1,"inconclusive [activator, partial curve]",
CCCCOc1ccc(-c2nnc(-c3cc[n+](C)cc3)o2)cc1,"inconclusive [inhibitor, single point]",
c1ccc2c(c1)nc1n2CN(Cc2ccc3c(c2)OCO3)CN1,"inconclusive [inhibitor, single point]",
CCCC1C2CN(C(C)C)CC=C2C(C#N)=C(N)C1(C#N)C#N (stereo not given),"inconclusive [activator, partial curve]",
COc1ccc(C)cc1N(C(=O)COc1cccc(F)c1)c1nc2ccccc2s1,"inconclusive [inhibitor, single point]",
CCCCCCCCCC[n+]1cccc2c3ccccc3ccc21,"inconclusive [activator, partial curve]",
COC(=O)C1=CN(C2CCCCC2)C=C(C(=O)OC)C1c1ccc2c(c1)OCO2,"inconclusive [activator, partial curve]",
CCOc1cc(-c2noc(N)c2C(=O)OC)cc(OCC)c1OCC,"inconclusive [inhibitor, partial curve, poor fit]",

Compound,Potency,"activity change, negative = inhibition"
COC(=O)c1cc(OC)c(OC)cc1NC(=O)c1c(-c2ccccc2)noc1C,"inconclusive [inhibitor, single point]",
C=CC[C@H]1CC(Cc2ccccc2)=C[C@H](CC=C)N1,"inconclusive [inhibitor, partial curve, poor fit]",
CCOC(=O)c1cnc2c(OC)cccc2c1NCc1cccnc1,,inconclusive: 20.2% [activator]
Cc1ccc(N2C(=O)c3ccccc3NC2C(C)Cc2ccc3c(c2)OCO3)cc1 (stereo not given),,inconclusive: 16% [activator]
Cc1ccc(OCCCn2c(=O)oc3ccccc32)cc1,,inconclusive: 4.09% [activator]
NC(=S)N=Nc1c(O)n(Cc2ccc(F)cc2)c2ccccc12,"inconclusive [inhibitor, full curve, poor fit]",
OCC1(Cc2ccccc2)CCN(Cc2ccc(C(F)(F)F)cc2)CC1,"inconclusive [inhibitor, single point]",
O=C(O)CCn1c(CO)nc2ccccc21,,inconclusive: 17.7% [activator]
COc1cc(/C=N/NC(=O)C(=O)N2CCCC2)ccc1O,,inconclusive: -16.1% [inhibitor]
Cc1ccc(C(=O)CC(SCC(=O)O)c2ccc([N+](=O)[O-])cc2)cc1 (stereo not given),"inconclusive [inhibitor, single point]",
Cc1sc2ncn(CC(=O)NCCCOC(C)C)c(=O)c2c1S(=O)(=O)N1CCN(c2ncccn2)CC1,"inconclusive [activator, partial curve]",
CC(=O)c1ccc2c(c1)C1C=CCC1C(c1ccncc1)N2 (stereo not given),,inactive: -12.7%
O=C(/C=C/c1cccc([N+](=O)[O-])c1)NCCSCc1ccccc1Cl,"inconclusive [inhibitor, full curve, poor fit]",
CCOc1ccccc1NC(=O)CN1C(=O)C(C)SC(C)C1=O (stereo not given),"inconclusive [inhibitor, full curve, poor fit]",
CCN1c2ccccc2N(C)C1(C)c1ccccc1 (stereo not given),"inconclusive [inhibitor, single point]",
CC1(C)NC(=O)N(CCCCSc2ccc(Cl)cc2)C1=O,"inconclusive [inhibitor, partial curve, poor fit]",
C=CCc1ccccc1OCC(=O)OCCNC(=O)c1cccnc1,"inconclusive [inhibitor, single point]",
COc1ccc(-c2cnnc(N/N=C/c3ccc(O)c(O)c3)n2)cc1,,inactive: -1.92%
COc1ccc(NC(=O)N2CCN(c3cccc(C(F)(F)F)c3)CC2)cc1,"inconclusive [inhibitor, partial curve]",
Cc1cc(C)cc(NC(=O)C(=O)NCCc2c[nH]c3ccccc23)c1,"inconclusive [inhibitor, single point]",
O=C1NC(c2ccc(-c3ccccc3[N+](=O)[O-])o2)C(C(=O)c2ccc(Cl)cc2)C(O)(C(F)(F)F)N1 (stereo not given),"inconclusive [inhibitor, single point]",
CN(C)C=NC(=O)c1cc(C(=O)c2ccc(Cl)cc2)c[nH]1,,inconclusive: 11.7% [activator]

Compound,Potency,"activity change, negative = inhibition"
C=CCNc1oc(-c2cccs2)nc1C#N,,inconclusive: 44.9% [activator]
COC(=O)c1cc(C)nc(N)c1C#N,,inconclusive: 41.7% [activator]
C=CCOC(=O)C1=C(C)NC(C)=C(C(=O)OCC=C)C1/C=C/c1ccccc1,"inconclusive [inhibitor, full curve]",
CC1=C(C(=O)Nc2ccc(C)cn2)C(c2cnn(C)c2)C2=C(CCCC2=O)N1 (stereo not given),,inconclusive: 18.4% [activator]
Cc1c(C(=O)N2CCN(c3ccc(F)cc3)CC2)sc2nc(-c3ccccc3)cn12,"inconclusive [inhibitor, single point]",
COc1ccc(S(=O)(=O)N2CCOCC2)cc1NC(=O)CSc1nnc2ccccn12,"inconclusive [inhibitor, single point]",
Cc1ccccc1C(=O)c1cccn1CC(=O)NCCN1CCN(c2cccc(C)c2C)CC1,,inconclusive: -16.7% [inhibitor]
COCCNc1cc(C)c(C#N)c2nc3ccccc3n12,"inconclusive [activator, partial curve]",
CCCCCCC(=O)N1CCC(c2nc3c(nnn3Cc3ccccc3Cl)c(=O)[nH]2)CC1,"inconclusive [inhibitor, partial curve, poor fit]",
CCN(CCC(=O)Nc1ccc(Br)c(C)c1)Cc1ccccc1,,inconclusive: 13.5% [activator]
O=c1oc(-c2cccs2)nc2sc3c(c12)CCC3,,inconclusive: -20.1% [inhibitor]
CCOC(=O)c1sc(=S)n(-c2cc(OC)ccc2OC)c1N,,inconclusive: -15.4% [inhibitor]
Cc1ccc2nc(-c3sc4nc(C)cc(C)c4c3N)[nH]c2c1,"inconclusive [inhibitor, single point]",
CCOc1ccc2[nH]c(=O)c(CN(Cc3cccs3)Cc3nnnn3C(C)(C)C)cc2c1,"inconclusive [inhibitor, single point]",
COc1cc(NC(=O)COc2ccccc2)c(OC)cc1NC(C)=O,"inconclusive [inhibitor, single point]",
CCCc1nc(SCC(=O)c2ccccc2)c2c(=O)n(C)c(=O)n(C)c2n1,,inconclusive: -16.2% [inhibitor]
Cc1ccccc1-n1c(-c2ccncc2)n[nH]c1=S,,inconclusive: -15.2% [inhibitor]
COc1ccc(C(=O)C2CCCN(Cc3ccc(C#CCCO)cc3)C2)cc1F (stereo not given),"inconclusive [inhibitor, partial curve, poor fit]",
Cc1ccc(C2C3=C(CC(C)(C)CC3=O)Nc3onc(C)c32)cc1 (stereo not given),"inconclusive [activator, partial curve]",
CCOc1ccc(N=C(NN)c2ccc3ccccc3n2)cc1,"inconclusive [inhibitor, single point]",
Fc1ccccc1Sc1ccccc1CNC1=NCCN1,"inconclusive [inhibitor, single point]",
